{"source": "paper PMC12136788", "binders": {"B1": {"name": "55281810_55284326_1425_CDS_ENSMUSG00000027797_ENSMUST00000054237|mouse|control|control (ssRNA)", "RNA": "GGGAGUUCUACAGUCCGACGAUCUCCUAUUGUUCUCCCGACUUUGUAUCUCUCUGUUAUUGUGGCAGGAAUCUGGAAGCCUUCCUCAGACUCUUCCCUCCUCCAUCCCCUCUGCAAGCUGUGCCUUCUCCCAAGCUCAUCACCCAACAGAGGAUUGAGCAUCA"}, "B2": {"name": "chr15:63762776:63762777:-_ENSMUSG00000022378_ENSMUST00000164532|mus_hu|FALSE|FALSE (ssRNA)", "RNA": "GGGAGUUCUACAGUCCGACGAUCGUUAAUUUAAACAUUUUCAUUUUGGUUGCACAUGAAAAAGGCGGCAGUAGAAAAUAAAGUCAUUGAGGGUUUUUAAAUAGCAGAAUAGGCAGUUUUGCCAUGCAGGAGAAGCAAUAUUAACAACAGAGGAUUGAGCAUCA"}, "B3": {"name": "65057774_65057894_2814_CDS_ENSMUSG00000029920_ENSMUST00000031984|mouse|control|control (ssRNA)", "RNA": "GGGAGUUCUACAGUCCGACGAUCAUCCAUGUCUAACUGGUAACUAUUAAUGUGUUGAUACUGUUUACAAAGUACAUGUAGUUCAAAAUCUGUCAUAACUUCCAUGUCUUCAAAGAUCAGGUCAGGGUUGGCCUCACAGUGCGUCAACAGAGGAUUGAGCAUCA"}, "B4": {"name": "chr9:53370893:53370894:+_ENSMUSG00000033054_ENSMUST00000035850|mus_mus|FALSE|FALSE (ssRNA)", "RNA": "GGGAGUUCUACAGUCCGACGAUCCGCUGCAUCAUUAGAGAGCUGUUUAUCUGAAGGGGCUGGUUCUUCAAGAUGAAUUUCUAUUUUCUCAGUCACAUUUACACCCAAACUUUCACCAAUCCCAGGAGGUGGUUUGCUCUGCAGCAACAGAGGAUUGAGCAUCA"}, "B5": {"name": "chrX:67713009:67713010:-_ENSMUSG00000073139_ENSMUST00000101506|mus_mus|FALSE|FALSE (ssRNA)", "RNA": "GGGAGUUCUACAGUCCGACGAUCUACAGGAGCAAAAAAUAGUGGAUUUAACCACAUUUUUAAGAGACCAAACAAAAAAUGCUACACUGCUUCCCCUUUCUUCUGAAACAGAACAGGCUCACUGGAGGCCUGUGCCAAGGGUAGCAACAGAGGAUUGAGCAUCA"}, "B6": {"name": "chr3:179287964:179287965:+_ENSG00000136518_ENST00000429709|hu_hu|hu_hu_hu_mus_True|48_48 (ssRNA)", "RNA": "GGGAGUUCUACAGUCCGACGAUCCUUGAGUGGUGAGAUGGCCUCCAUGUUCUCCCUGGGCACGCGGAGGGCAUUGGUGUCUAUGUAGUAGGUGGGACCGCCCUGCUUGCCUUUGUCACCAUCAAUCUCCAUCAUUGUACUUCCCAACAGAGGAUUGAGCAUCA"}, "B7": {"name": "chr22:32879901:32879902:+_ENSG00000100225_ENST00000397426|hu_mus|hu_hu_hu_mus_False|78_108 (ssRNA)", "RNA": "GGGAGUUCUACAGUCCGACGAUCCUCUGCCAUAUGCAUGGCAUCCUGAAUUGACUCAGCUUCAAAAUUUUGACUAGGCCCUUCCAUACUGUCAUCAGUCCAGGCAUCAAAUGGGGUGGCCUGUCCUUGGGAUGAAUCAGUCCCCAACAGAGGAUUGAGCAUCA"}, "B8": {"name": "chr9:40579289:40579290:+_ENSMUSG00000032024_ENSMUST00000034522|mus_hu|FALSE|FALSE (ssRNA)", "RNA": "GGGAGUUCUACAGUCCGACGAUCAUUCUUAACCUUACAGGUGUACCGGCCCUCAUCACUGGGCUUCAGAGGUUCAAUCUGCAAGGAGGCAUCUCCUGCCAGGAAAUUGGAAGCAAAGGCCACUCGGCCCUUCUGUUCCUCAGUCAACAGAGGAUUGAGCAUCA"}, "B9": {"name": "chr1:8037743:8037744:+_ENSG00000116288_ENST00000493373|perfect_dup|motif|central (ssRNA)", "RNA": "GGGAGUUCUACAGUCCGACGAUCGCCAUUCAUCAUUUUGUCCUUAGCCAGUGGGUGUGUUGUGACCUUGCAUCCAAAACCGGCUUCGUGAGCCAACAGAGCCGUAGGACCUGCACAGAUGGCAGCUAUGAGGCCCUUCCUGCUCAACAGAGGAUUGAGCAUCA"}, "B10": {"name": "chr3:7442581:7442582:+_ENSMUSG00000027499_ENSMUST00000028999|mus_mus|motif|central (ssRNA)", "RNA": "GGGAGUUCUACAGUCCGACGAUCUGUACUGUACGAUACAAAACGGCGUAAGUAACAGCACUCACACACAGGGACAUAAUGCGGACUGUGCUCUCUGGAUGGUUCUUUUUGUGAGUCAAUACUCCAGCCAGAGAUACUGAAACUCAACAGAGGAUUGAGCAUCA"}, "B11": {"name": "chr19:55172049:55172050:-_ENSMUSG00000024978_ENSMUST00000061856|mus_hu|FALSE|FALSE (ssRNA)", "RNA": "GGGAGUUCUACAGUCCGACGAUCUGUGUGCUUACAUCGACCAACACUGUAUUCUGAUGAAUGUGGCAGAUAAGAAACAUCUAUUGUACCAAGGGUCAGUGCAGAUUCAUCCAUGUCACAAAGUGUAAUUCCCAAAUCAUGUGCCAACAGAGGAUUGAGCAUCA"}, "B12": {"name": "chr2:175094126:175094127:-_ENSG00000138430_ENST00000344357|hu_hu|motif|central (ssRNA)", "RNA": "GGGAGUUCUACAGUCCGACGAUCUCUGCUCUCAUUAGGAUCAAUAGUGCAGAACGGGAAGUUUUCUGCUGAAGCCUGACGGUUGGUUAACACAUUGAAGAAAGUAGAUUUCCGUGCUCGGCCUGGGCGAUGACACGGGGUCCCCAACAGAGGAUUGAGCAUCA"}, "B13": {"name": "chr14:89307221:89307222:+_ENSG00000165533_ENST00000346301|hu_hu|FALSE|FALSE (ssRNA)", "RNA": "GGGAGUUCUACAGUCCGACGAUCUCCUGUCUGAUUAGUUCCAGGGAGUUUCAAAGACGUUCCAGGGCGUGGAACUUGAGCUAUAGCAUUUUCAUCCAGCAUCAUUUCUGCAAUUCCUUCCUGAUCUACAUCAAUUUCAUCUAUCAACAGAGGAUUGAGCAUCA"}, "B14": {"name": "chr5:137354059:137354060:-_ENSG00000031003_ENST00000033079|hu_hu|motif|central (ssRNA)", "RNA": "GGGAGUUCUACAGUCCGACGAUCGUGAAUAUGUAAACUGCCAGGGAUAACAGGUUCAGGAAGUUCUUGAAGAAAAAAUCGGAGAAGGCUAAUAGCUGAGGGAACAUCUGCUUCCUUAACCAAAUCCACCUCUUCUCCGCUGUCCAACAGAGGAUUGAGCAUCA"}}, "note": "This is one part of the list.", "data": [{"biological_target": "T1, UNK ZnF1-3 (human, UniProt Q9C0B0 31-174)", "T1 sequence": "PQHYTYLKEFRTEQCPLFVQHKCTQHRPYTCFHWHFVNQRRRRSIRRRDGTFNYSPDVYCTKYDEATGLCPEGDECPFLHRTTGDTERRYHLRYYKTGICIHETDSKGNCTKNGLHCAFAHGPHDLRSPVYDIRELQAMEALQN", "assay": "nsRBNS (natural sequence RNA bind-n-seq); RBNS binding buffer (assumed for nsRBNS): 25 mM Tris pH 7.5, 150 mM KCl, 3 mM MgCl2, 0.01% Triton X-100, 500 ug/ml BSA, 20 U/ml SUPERase-In, 4 C; UNK is unkempt and MSI1 is Musashi-1; names of the RNAs are library labels; protein concentration not given here; high values mean tight binding", "units": {"binding signal": "enrichment R"}, "values": [{"binder": "B1", "binding signal": 0.599}, {"binder": "B2", "binding signal": 2.65}, {"binder": "B3", "binding signal": 0.986}, {"binder": "B4", "binding signal": 1.03}, {"binder": "B5", "binding signal": 1.25}, {"binder": "B6", "binding signal": 0.626}, {"binder": "B7", "binding signal": 0.816}, {"binder": "B8", "binding signal": 0.999}, {"binder": "B9", "binding signal": 0.883}, {"binder": "B10", "binding signal": 0.862}, {"binder": "B11", "binding signal": 2.3}, {"binder": "B12", "binding signal": 0.968}, {"binder": "B13", "binding signal": 0.892}, {"binder": "B14", "binding signal": 0.879}]}]}
